Experimental data from patent US8741947B2, “Biologically active macrolides, compositions, and uses thereof” (The United States of America, as represented by the …, priority 2000, dated 2014).

Tested on: panel of 60 different human tumor cell lines
Assay: NCI 60 cell-line screen, whole panel: mean-graph and COMPARE analysis
Details: read-out: Mean-Panel GI50 × 10^−8M (±S.D.); Example 4; quadruplicate, upper concentration limit 10^−6 molar; S.D. in brackets

Compound	GI50 [nM]
CC/C=C\C=C/C(=O)N/C=C/C[C@H]1C[C@@H](O)[C@@H](C)C/C=C/Cc2cccc(O)c2C(=O)O1 [Salicylihalamide A, salicylihalamide A, reference compound]	49.7
CO/C1=C\C(C)=C\[C@@H](C)[C@@H](O)[C@@H](C)C/C(C)=C/C=C/[C@H](OC)[C@@H]([C@@H](C)[C@@H](O)[C@H](C)[C@@]2(O)C[C@@H](O)[C@H](C)[C@@H](C(C)C)O2)OC1=O [Bafilomycin A1, bafilomycin A1, reference compound]	10.2
C/C=C/[C@H]1O[C@@](O)([C@@H](C)[C@H](O)[C@H](C)[C@H]2OC(=O)/C(OC)=C/C(C)=C/[C@@H](C)[C@@H](O)[C@@H](CC)[C@@H](O)[C@H](C)C/C(C)=C/C=C/[C@@H]2OC)C[C@@H](O[C@H]2C[C@@H](O)[C@H](OC(N)=O)[C@@H](C)O2)[C@@H]1C [Concanamycin A, concanamycin A, reference compound]	1.1
lobatamide A	5.6
